# According to patent US8551954B2, “Antimicrobial peptides with heparin binding activity” (Pergamum AB, priority 2003, dated 2013):
# Test system: Enterococcus faecalis (isolate 2374)
# Assay: Bactericidal (colony-forming unit) assay of arginine and lysine-rich peptides
# Format: cell-based
# Settings: 0.03 to 60 μM peptide, 10 mM Tris pH 7.4, 5 mM glucose, 37° C. 2 hours
# Procedure: FIG. 1 describes bactericidal effects of arginine and lysine-rich peptides (Sequence listing) on Enterococcus faecalis. Bacteria were grown to mid-logarithmic phase in Todd-Hewitt (TH) medium. Bacteria were washed and diluted in either 10 mM Tris, pH 7.4, containing 5 mM glucose Bacteria (50 μl; 2×10^6 cfu/ml) were incubated, at 37° C. for 2 hours, with the synthetic peptide at concentrations ranging from 0.03 to 60 μM. To quantify the bactericidal activity, serial dilutions of the incubation mixture were plated on TH agar, followed by incubation at 37° C. overnight and the number of colony-forming units was determined. 2×10^6 colony-forming units (CFU)×ml^-1 of E. faecalis (isolate 2374) were incubated in 50 μl with peptides at concentrations ranging from 0.03 to 60 μM. (A) Synthetic peptides derived from laminin. Effect of peptides from the LG-domain of the α5 chain (PPP25: SEQ ID NO:13, LGT25: SEQ ID NO:12, RLR22: SEQ ID NO:14, PGR11: SEQ ID NO:15) and α1 chain (SRN16: SEQ ID NO:8, SRN29:SEQ ID NO:9, KDF15:SEQ ID NO:10, SAV15:SEQ ID NO:11) are shown. One peptide (RIQ18:SEQ ID NO:16) is derived from the β1 chain. (B) Three peptides are derived from the complement factor C3 (LRK26:SEQ ID NO:5, LGE27:SEQ ID NO:6 and CNY21:SEQ ID NO:7), AKK15 from vitronectin, SEK20:SEQ ID NO: 19 from the protein C inhibitor, QPP18:SEQ ID NO:17 from fibronectin, and YIG23:SEQ ID NO:18 from the von Willebrand factor.
row,Substance,antimicrobial effect on E. faecalis
1,"GHRPLDKKREEAPSLRPA (completely synthesized, derived from heparin-binding consensus sequence)",not antimicrobial
2,"KNNQKSEPLIGRKKT (completely synthesized, derived from heparin-binding consensus sequence)",not antimicrobial
3,"LVTSKGDKELRTGKEKVTS (completely synthesized, derived from heparin-binding consensus sequence)",not antimicrobial

# Test system: E. coli
# Assay: Radial diffusion assay (RDA)
# Format: cell-based, Escherichia coli
# Settings: peptide 100 μM; (diameter of clear zone in mm - well diameter) x 10; 18-24 h at 37° C.
# Procedure: Radial diffusion assays (RDA) were performed essentially as described earlier (Andersson et al., Eur J Biochem, 2004, 271:1219-1226). Briefly, bacteria (E. coli) or fungi (C. albicans) were grown to mid-logarithmic phase in 10 ml of full-strength (3% w/v) trypticase soy broth (TSB) (Becton-Dickinson, Cockeysville, Md.). The microorganisms were washed once with 10 mM Tris, pH 7.4. 4×10^6 bacterial cfu or 1×10^5 fungal cfu was added to 5 ml of the underlay agarose gel, consisting of 0.03% (w/v) TSB, 1% (w/v) low-electroendosmosistype (Low-EEO) agarose (Sigma, St Louise Mo.) and a final concentration of 0.02% (v/v) Tween 20 (Sigma). The underlay was poured into a Ø 85 mm petri dish. After agarose solidified, 4 mm-diameter wells were punched and 6 μl of test sample was added to each well. Plates were incubated at 37° C. for 3 hours to allow diffusion of the peptides. The underlay gel was then covered with 5 ml of molten overlay (6% TSB and 1% Low-EEO agarose in dH2O). Antimicrobial activity of a peptide is visualized as a clear zone around each well after 18-24 hours of incubation at 37° C. Synthetic peptides were tested in concentrations of 100 μM to determine the antibacterial effect relative the known peptide LL-37. To minimize variation between experiments, a LL-37 standard (100 μM) was included on each plate. The activities of the peptides are presented in radial diffusion units ((diameter of clear zone in millimeters—well diameter)×10).
row,Substance,Radial diffusion units [radial diffusion units]
1,AKKARAAKKARAAKKARAAKKARA (AKKARAAKKARAAKKARAAKKARA) [AKK24],67
2,"AKKQRFRHRN RKGYR (AKKQRFRHRNRKGYR; derived from vitronectin) [AKK15, peptide derived from Vitronectin]",101
3,ARKKAAKAARKKAAKAARKKAAKA (ARKKAAKAARKKAAKAARKKAAKA) [ARK24],74
4,"CNYITELRRQHARASHLGLAR (derived from complement factor C3) [CNY21, peptide derived from C3a]",32
5,"KDFLSIELFR GRVKV (KDFLSIELFRGRVKV; derived from laminin) [KDF15, peptide derived from Laminin-α1]",65
6,"LGTRLRAQSRQRSRPGRWHKVSVRW (LGTRLRAQSRQRSRPGRWHKVSVRW; derived from laminin) [LGT25, peptide derived from Laminin-α5]",85
7,LL-37 [reference compound],50
8,"PGRWHKVSVR W (PGRWHKVSVRW; derived from laminin) [PGR11, text: α5 chain)]",86
9,"PPPPLTSASKAIQVFLLGGSRKRVL (PPPPLTSASKAIQVFLLGGSRKRVL; derived from laminin) [PPP25, peptide derived from Laminin-α5]",81
10,"QPPRARITGY IIKYEKPG (QPPRARITGYIIKYEKPG; derived from fibronectin) [QPP18, peptide derived from Fibronectin]",59
11,"RIQNLLKITNLRIKFVKL (derived from laminin) [RIQ18, peptide derived from Laminin-β1]",93
12,"RLRAQSRQRSRPGRWHKVSVRW (RLRAQSRQRSRPGRWHKVSVRW; derived from laminin) [RLR22, peptide derived from Laminin-α5]",92
13,"SAVRKKLSVE LSIRT (SAVRKKLSVELSIRT; derived from laminin) [SAV15, peptide derived from Laminin-α1]",75
14,"SRNLSEIKLLISQARKQAASIKVAVSADR (SRNLSEIKLLISQARKQAASIKVAVSADR; derived from laminin) [SRN29, peptide derived from Laminin-α1]",71
15,"SRNLSEIKLLISQARK (derived from laminin) [SRN16, peptide derived from Laminin-α1]",77
16,"YIGLKDRKRPSELRRIASQVKYA (YIGLKDRKRPSELRRIASQVKYA; derived from von willebrand factor) [YIG23, peptide derived from Von Willebrand Factor]",80

# Test system: E. faecalis
# Assay: Bactericidal (colony-forming unit) assay of histidine-rich peptides with or without zinc
# Format: cell-based, Enterococcus faecalis
# Settings: not given
# Procedure: FIG. 3 describes bactericidal effects of histidine-rich peptides. E. faecalis bacteria were grown to mid-logarithmic phase in Todd-Hewitt (TH) medium. Bacteria were washed and diluted in either 10 mM Tris, pH 7.4, containing 5 mM glucose with or without 50 μM ZnCl or 10 mM MES-buffer, 5 mM glucose, pH 5.5. Bacteria (50 μl; 2×10^6 cfu/ml) were incubated, at 37° C. for 2 hours, with the synthetic peptide at concentrations ranging from 0.03 to 60 μM (Tris-buffer with or without zinc), or 30 and 60 uM (Tris and MES-buffer). To quantify the bactericidal activity, serial dilutions of the incubation mixture were plated on TH agar, followed by incubation at 37° C. overnight and the number of colony-forming units was determined. […] SEQ ID NO:4) and kininogen (KHN20: SEQ ID NO:3, GGH20: SEQ ID NO:2 and HKH20: SEQ ID NO:1) in the presence or absence of 50 uM ZnCl are shown. (B): Effects of peptides (30 and 60 uM) in 10 mM Tris, pH 7.4, containing 5 mM glucose or 10 mM MES-buffer, 5 mM glucose, pH 5.5. The numbers indicate % survival where 100% is control (without peptide). (C): Effects of peptides AHH24: 1 and AHH24:2 on E. faecalis in the presence of a fixed peptide/zinc molar ratio (1:100).
row,Substance,antimicrobial activity on E. faecalis without zinc
1,AHHAHAAHHAHAAHHAHAAHHAHA (AHHAHAAHHAHAAHHAHAAHHAHA; derived from synthetic K-H sequence) [AHH24:1],no antimicrobial activity
2,AHHHAAHAAHHHAAHAAHHHAAHA (AHHHAAHAAHHHAAHAAHHHAAHA; derived from synthetic K-H sequence) [AHH24:2],no antimicrobial activity

# Test system: Pseudomonas aeruginosa
# Assay: Electron microscopy analysis of bacteria subjected to antimicrobial peptides
# Format: cell-based
# Settings: peptide at ~50% of the required bactericidal concentration
# Procedure: (A) Control. (B-H) Analysis of bacteria treated with peptides at 50% of the required bactericidal concentration. HKH20 was also analysed at 200%.
row,Substance,morphology of treated bacteria (electron microscopy)
1,LL-37 [reference compound],local perturbations and breaks along P. aeruginosa bacterial cell membranes
